Results taken from PubChem BioAssay AID1508623 (National Center for Advancing Translational Sciences (NCATS), 2021).
Out of some 48,000 compounds screened, about 450 (0.94%) were called active. About 19% were inconclusive and are not listed. Calls come from the whole dose curve; as a rule, active = well fitted inhibition curve with a large enough effect; inconclusive = small, poorly fitted or top-dose-only effect; inactive = no such curve, though single readings can be large or run the other way. The list shows a part of the results.

test: Primary qHTS for Identification of Small Molecule Inhibitors of Huntingtin Promoter Activity; settings: HEK293 HTT promoter firefly luciferase reporter (activity 0% = vehicle and -100% = no light), 24 h; series mostly up to 57.5 µM; activity change, negative = inhibition: at the top concentration; note: nearly all actives have a fitted effect of over 50% in size
Procedure, shortened: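 Firefly luciferase readout (Dual-Glo, 10 min RT) after 24 h, 37 °C compound exposure (final up to 57.5 uM) of HEK293 reporter cells cultured 24 h beforehand; PTC124 at 50 uM final as control inhibitor; activity scaled vehicle 0%, zero RLU -100%.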

Activity change, negative = inhibition, inactive:
Cn1c(C(=O)Nc2cccc(C(F)(F)F)c2)cc2c(=O)n3ccccc3nc21 -4.15%
CCOc1ccc(NC(=O)C2CCC(CNS(=O)(=O)c3ccc(Br)s3)CC2)cc1 (configuration not stated) 0%
COc1ccc(OC)c(CNC(=O)C(C)n2c(C)c3cnn(-c4ccccc4)c(=O)c3c2C)c1 (configuration not stated) -22.2%
CC1=C(c2ccc(C)c(C)c2)S(=O)(=O)N=C1N1CCC(C(=O)N2CCC(C)CC2)CC1 -13.5%
CCOc1cc(/C=C(\C#N)C(=O)NCC2CCCO2)ccc1O (configuration not stated) 5.23%
CCOc1ccc(C(=O)c2oc3ccccc3c2NC(=O)Cc2coc3ccc(CC)cc23)cc1 4.47%
Cc1cccc(NC(=O)N2CCC3(CC2)Oc2ccccc2C(=O)N3Cc2ccccc2F)c1C -1.41%
O=C(Cc1ccc(F)cc1)Nc1nnc2n1CCS2 -5.29%
COc1cccc(C(=O)Nc2c(C(=O)N3CCN(c4ccc(F)cc4)CC3)oc3ccccc23)c1 -29.8%
COc1cc2ccccc2cc1C(=O)Nc1ccc2oc(-c3ccc(F)cc3Cl)nc2c1 22.8%
CN(C)CCCN1c2ccccc2CCc2ccccc21 -8.2%
C[C@H]1COc2c(N3CCN(C)CC3)c(F)cc3c(=O)c(C(=O)O)cn1c23 3.64%
CCc1ccc2occ(CC(=O)Nc3ccccc3C(F)(F)F)c2c1 -1.52%
CC(C)c1ccc(Nc2cc(C(=O)NC3CCCCC3)c3ccccc3n2)cc1 -0.231%
CCc1cccc(-n2c(=O)c3cccnc3n2CC(=O)Nc2ccc(F)c(C)c2)c1 -27.5%
O=C(NCCn1ccc2ccccc21)c1ccc(Cl)cc1 26.3%
COc1ccccc1NC(=O)CSc1nc(-c2ccc(C(C)(C)C)cc2)c(C#N)c(=O)[nH]1 1.38%
CCc1ccccc1OCC(=O)Nc1ccc(S(=O)(=O)Nc2nc(C)cc(C)n2)cc1 -13.1%
CCOC(=O)c1c(-c2ccc(C)cc2)csc1NC(=O)c1cc(=O)c2ccc(C)cc2o1 -17.1% [at 11.5 µM]
COc1ccc(NC(=O)Cn2c(=O)n(Cc3nc(-c4ccccc4)no3)c(=O)c3ccccc32)cc1Cl -29.2%
CCCCCCCCCCC(CO)CCCCCCCC (configuration not stated) 10.5%
NC(CO)C(=O)NNCc1ccc(O)c(O)c1O (configuration not stated)
COc1ccc(NC(=O)C2CCCN(S(=O)(=O)c3ccc(Br)s3)C2)cc1 (configuration not stated) -13.5%
CC(=O)N1CCc2cc(S(=O)(=O)NC(C(=O)Nc3ccc(C)cc3C)C(C)C)ccc21 (configuration not stated) -27.5%
CCOC(=O)c1c(NC(=O)c2cc(-c3cccc(OC)c3)on2)sc2c1CCCC2 3.72%
COc1cccc(CNC(=O)Cc2c(C(=O)O)c(C)cn2C)c1 -11.8%
COc1ccc(CC(=O)NCC(c2cccs2)S(=O)(=O)c2ccc(C)cc2)cc1 (configuration not stated) -6.17%
CCc1ccc(NC(=O)Cn2c(=O)n(Cc3ccco3)c(=O)c3oc4ccccc4c32)cc1 -1.56%
O=C(NCc1cccs1)c1ccc(CSc2nc3cccnc3n2Cc2ccccc2F)cc1 -29.6%
Cc1cc(C)c(NC(=O)Cn2cnc3c(oc4ccccc43)c2=O)c(C)c1 54.8%
Cc1oc(-c2ccccc2Cl)nc1CSc1nc2ncccc2[nH]1 -16.4%
COc1ccccc1N1CCN(c2ncnc3onc(-c4cccc(Cl)c4)c23)CC1 -21%
CCOC(=O)c1c(C)n(-c2ccccc2)c2ccc(OC(=O)c3cccc(OC)c3OC)cc12 -19%
COc1ccc(S(=O)(=O)Nc2c(C)nc3nc(C)[nH]n3c2=O)cc1 -18.1%
CCc1cccc(N2C(=O)CSC23C(=O)Nc2ccccc23)c1 (configuration not stated) -31.4%
CCCN(C(=O)c1cc2c(=O)[nH]c3ccc(C)cc3c2s1)c1ccc(CC)cc1 -10.4%
CC1CCN(C(=O)c2cc(-c3ccc(Br)cc3)on2)CC1 43.4%
CCOC(=O)C1CCCN(C(=O)c2nn(-c3ccc(C)cc3)c(=O)n(C)c2=O)C1 (configuration not stated) 1.47%
CCc1nnc2c(N3CCN(c4cc(Cl)ccc4C)CC3)nc3ccccc3n12 -6.47%
COc1ccc(C2=NC(c3ccncc3)=Nc3ccc(OC)cc3N2)cc1 -8.16%
COc1ccc2c(c1)c(N1CCCC1=O)c(C(=O)Nc1ccccc1C(F)(F)F)n2C -21%
CCOc1ccc(NC(=O)CCNS(=O)(=O)c2cccc3nonc23)cc1 -10.7%
COc1ccc(-c2noc(COc3cc(C)ccc3C)n2)cc1OC -22.3%
O=C1[C@@H]2CSC(c3ccc(Cl)cc3)N2C(=O)N1c1ccccc1 (some centres not stated) -22%
CC(C)c1ccc(N2C(=O)CSC23C(=O)N(C)c2ccccc23)cc1 (configuration not stated) -31.1%
COc1ccc(Cl)cc1NC(=O)c1cn(C2CCCCC2)c(=O)c2c1c1ccccc1n2C -14.7%
CCOc1ccc(Nc2nc3cc(Cl)c(Cl)cc3nc2-n2nc(C)cc2C)cc1 -6.82%
Cc1c(C(=O)N(Cc2ccc(N(C)C)cc2)CC2CCCO2)oc2ccc(Cl)cc12 (configuration not stated) -2.93%
COc1ccc(N2CCN(c3csc4ccc(Cl)cc4c3=O)CC2)cc1 5.3%
COc1ccc(CNC(=O)c2cc(-c3ccc(C)cc3)nc3n[nH]c(-c4ccc(Br)cc4)c23)cc1 -13.3%
CCc1ccccc1Nc1nn2c(=O)c3ccc(C(=O)NCc4ccccc4OC)cc3nc2s1 -14.3%
CCOc1ccc(Nc2ncnc3c2nc2n3CCCC2)cc1 -10.4%
CCOC(=O)c1c(C)[nH]c(C)c1S(=O)(=O)N1CCCC(C(=O)Nc2ccc(C)cn2)C1 (configuration not stated) -14.4%
O=C1OC(CN2CCOCC2)CN1/N=C/c1ccc([N+](=O)[O-])o1 (configuration not stated) 6.8%
COc1ccccc1Cn1cc(C(=O)c2ccc(C)cc2)c(=O)c2cc(C)ccc21 -5.04%
CCN(c1ccccc1)c1ccc2cc(S(=O)(=O)N3CCCC3)ccc2n1 2.97%
Cc1ccc(-n2nc(CO)c(C(=O)NCCCc3ccccc3)n2)cc1C 9.8%
CCOc1ccccc1CNC(=O)c1c(C)oc2ncnc(N3CCOCC3)c12 -9.08%
CCOc1ccc(NC(=O)CSc2ccc(-c3sc(-c4ccccc4)nc3C)nn2)cc1 10%
CCOC(=O)c1oc2ccc(S(=O)(=O)n3nc(-c4cc(OC)c(OC)c(OC)c4)cc3N)cc2c1C -27.6%
CCOC(=O)CNC(=O)Nc1cc(C(=O)NCc2ccccc2OC)ccc1N1CCCC1 -6.11%
Cc1ccccc1C(=O)NC1(C(F)(F)F)N=C(c2ccccc2)N(C2CCCCC2)C1=O (configuration not stated) -11.9%
CCOc1ccc(NC(=O)C2CCCN(c3ccc(Sc4ccc(C)cc4)nn3)C2)cc1 (configuration not stated) -3.4%
O=C(NC(=O)c1ccccc1)Nc1ccc(-c2cc(C(F)(F)F)nn2-c2ccccc2)cc1 4.2%
COC(=O)C(CCSC)NC(=O)c1cc2c(n(-c3ccc(Cl)cc3)c1=O)CCCC2=O (configuration not stated) -1.57%
CCCn1c(CNC(=O)c2ccc(F)cc2)nc2ccccc21 0.406%
Cc1ccc2oc(-c3ccc(C)c(NC(=O)c4ccc(N5CCC(C)CC5)c([N+](=O)[O-])c4)c3)nc2c1 2.63%
O=c1c2cc3c(cc2n(Cc2ccc(F)cc2)c(=O)n1Cc1nc(-c2ccccc2)no1)OCO3 -5.56%
Cc1cccc(NC(=O)c2ccc3snnc3c2)c1C -0.964%
CC(C)CN(CCCNC(=O)CN1N=C(c2ccc(Cl)cc2)CCC1=O)CC(C)C -11%
Clc1ccc2c(c1)NC(c1ccncc1)=NC(c1cccs1)=N2 -7.09%
C[C@]12C=CC(=O)C=C1CC[C@@H]1[C@@H]2[C@@H](O)C[C@@]2(C)[C@@H]1CC[C@]2(O)C(=O)CO -0.457%
CCOc1ccccc1NC(=O)C(CC(C)C)NS(=O)(=O)c1ccc2c(c1)oc(=O)n2C (configuration not stated) -0.779%
COC(=O)c1c(SC)nc2ccccc2c1OCc1ccc(Cl)cc1 -37.7%
O=C(COCc1cc(-c2ccc3c(c2)OCO3)on1)N1CCN(c2cccc(Cl)c2)CC1 -12.4%
CNS(=O)(=O)c1cn(CC(=O)N2CCN(c3cccc(C)c3C)CC2)cc1S(=O)(=O)NC -7.05%
Cc1ccc(S(=O)(=O)N(Cc2nc(-c3cccc(C)c3)no2)C2CCCCC2)cc1 -30.2%
O=c1cc(-c2ccccc2)nc(SCc2nc(-c3ccc(Cl)cc3)no2)[nH]1 7.53%
CCN1CCN(C(=O)c2cnn(-c3cccc(Cl)c3)c2C2CCN(C(=O)OC(C)(C)C)CC2)CC1 -11%
Cc1ccsc1C(=CCCN1CCC[C@@H](C(=O)O)C1)c1sccc1C 3.39%
CSC1=NC2(CCN(C(=O)NC3CCCCC3)CC2)N=C1c1ccc(C)cc1 -15.9% [at 11.5 µM]
COc1ccc(N2Cc3cccc(C(=O)Nc4cc(C)cc(C)c4)c3C2=O)cc1 3.43%
Cc1noc(-c2ccc(-c3noc(-c4cccc(F)c4)n3)cc2)n1 0.0129%
NC(=O)C1CCN(C(=O)c2cccc(NC(=O)c3nsc4ccccc34)c2)CC1 43.4%
Cn1c(=O)c2c(nc(SCC(=O)Nc3ccccc3)n2Cc2ccccc2F)n(C)c1=O 1.08%
CCN(CC)S(=O)(=O)c1nnc(NC(=O)COc2ccccc2F)s1 -7.45%
Nc1c(C(=O)Nc2ccc(OC(F)(F)F)cc2)nnn1Cc1ccccc1 9.54%
CCc1c(CN2CCN(c3cccc(C)c3C)CC2)csc1C -9.89%
O=C(C1COc2ccccc2O1)N(Cc1cccnc1)c1nc2ccc(Cl)cc2s1 (configuration not stated) -5.06%
Cc1ccc(C#N)c(=O)n1CC(=O)Nc1ccccc1C(F)(F)F -8.99%
Cc1ccc(-n2c3nc(=O)[nH]c(=O)c-3cc3c(C)nn(-c4ccccc4)c32)cc1Cl -4.03%
O=C(NC1CCCCC1)c1ccc(Cn2c(SCc3ccc(F)cc3)nc3cccnc32)cc1 6.22%
Cc1ccc2c(c1)-c1onc(C(=O)N3CCN(c4ccc(Cl)cc4)CC3)c1CO2 -5.56%
Cc1cccc(C)c1NC(=O)NCCc1c[nH]c2ccccc12 -6.56%
CCCNC(=O)C1CCC(Cn2c(=O)c3sccc3n(Cc3ccccc3F)c2=O)CC1 (configuration not stated) 2.38%
CNCCCN1c2ccccc2CCc2ccccc21 -10.6%
COc1ccccc1CNC(=O)CCn1nc(C)c2c(C)n(-c3ccccc3)nc2c1=O -15.8%
